Reference: PubChem BioAssay AID1347165 (National Center for Advancing Translational Sciences (NCATS), 2019)
Out of some 220,000 compounds screened, about 5,700 (2.6%) were called active. The shares of active, inactive and inconclusive entries below differ from those in the screen. Calls follow the shape of the dose curve; as a rule, active = well fitted inhibition curve with a large enough effect; inconclusive = small, poorly fitted or top-dose-only effect; inactive = no such curve, though single readings can be large or run the other way. Where the call is inconclusive, the potency comes from a doubtful curve fit.

biological target: Lysine-specific demethylase 5B (Homo sapiens) (UniProt Q9UGL1); experiment: Primary screen for KDM5B Histone Demethylases FDH-coupled qHTS; details: FDH-coupled NADH fluorescence (FDH is formaldehyde dehydrogenase); activity change, negative = inhibition: at 57.7 µM (top of the series) unless noted; also: nearly all actives have a fitted effect of over 70% in size; as to activity change, negative = inhibition: 0% is about no effect
Chain of UniProt Q9UGL1 (Q9UGL1 whole entry, looked up): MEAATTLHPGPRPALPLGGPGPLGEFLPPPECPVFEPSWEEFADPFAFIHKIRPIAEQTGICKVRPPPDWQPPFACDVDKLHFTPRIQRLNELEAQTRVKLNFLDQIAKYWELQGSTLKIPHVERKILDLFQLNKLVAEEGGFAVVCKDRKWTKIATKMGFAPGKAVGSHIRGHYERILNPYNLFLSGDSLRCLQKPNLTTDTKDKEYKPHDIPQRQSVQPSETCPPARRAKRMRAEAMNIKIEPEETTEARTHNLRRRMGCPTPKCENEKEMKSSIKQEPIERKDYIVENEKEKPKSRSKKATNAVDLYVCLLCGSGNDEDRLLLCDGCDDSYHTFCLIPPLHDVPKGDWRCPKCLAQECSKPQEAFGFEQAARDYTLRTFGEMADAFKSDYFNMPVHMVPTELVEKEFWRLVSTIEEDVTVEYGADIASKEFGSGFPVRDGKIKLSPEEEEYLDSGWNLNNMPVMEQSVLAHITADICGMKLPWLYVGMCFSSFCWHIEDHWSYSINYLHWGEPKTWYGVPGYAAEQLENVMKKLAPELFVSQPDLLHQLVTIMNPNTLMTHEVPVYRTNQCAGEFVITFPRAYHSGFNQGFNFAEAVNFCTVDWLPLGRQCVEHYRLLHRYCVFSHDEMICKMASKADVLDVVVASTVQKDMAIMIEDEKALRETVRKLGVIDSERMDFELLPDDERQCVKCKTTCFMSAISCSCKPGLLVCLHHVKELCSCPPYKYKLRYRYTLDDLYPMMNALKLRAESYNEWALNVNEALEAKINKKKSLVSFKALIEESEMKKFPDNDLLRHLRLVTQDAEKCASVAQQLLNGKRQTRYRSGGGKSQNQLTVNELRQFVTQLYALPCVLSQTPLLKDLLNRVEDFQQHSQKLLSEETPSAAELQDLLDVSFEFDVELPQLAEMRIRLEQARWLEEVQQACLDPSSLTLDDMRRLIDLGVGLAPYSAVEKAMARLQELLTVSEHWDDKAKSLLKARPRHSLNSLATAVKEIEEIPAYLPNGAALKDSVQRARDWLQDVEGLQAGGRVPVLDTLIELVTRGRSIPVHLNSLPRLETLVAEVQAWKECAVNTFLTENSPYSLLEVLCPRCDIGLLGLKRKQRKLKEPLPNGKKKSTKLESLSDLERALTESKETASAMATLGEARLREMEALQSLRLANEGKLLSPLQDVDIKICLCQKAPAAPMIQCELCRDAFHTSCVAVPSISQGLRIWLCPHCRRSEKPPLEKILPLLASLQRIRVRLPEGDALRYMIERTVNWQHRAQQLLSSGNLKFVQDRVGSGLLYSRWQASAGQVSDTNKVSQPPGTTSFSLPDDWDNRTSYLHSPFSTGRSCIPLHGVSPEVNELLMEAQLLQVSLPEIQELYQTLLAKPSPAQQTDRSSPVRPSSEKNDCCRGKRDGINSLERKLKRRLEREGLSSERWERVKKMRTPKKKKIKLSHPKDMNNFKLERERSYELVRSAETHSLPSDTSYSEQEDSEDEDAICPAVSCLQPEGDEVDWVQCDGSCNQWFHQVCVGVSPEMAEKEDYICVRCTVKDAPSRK
How it was run: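 Here, H3K4me3 peptide (12.5 µM in substrate mix) is demethylated by KDM5BΔAP, 200 nM final, after 10 min compound exposure. Formaldehyde product is coupled through FDH (0.25 U/mL in mix) to NADH fluorescence; 30-min ΔRFU feeds dose-response curves.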
Potency is read from the fitted curve at half-maximal effect; tags tell the direction and shape of the fitted curve.

Row | Compound | activity change, negative = inhibition | Potency
1 | C=CCNC(=O)NC(=O)CN(C)CCCOc1ccccc1 | inactive: -19.5% | 
2 | O=C(CSc1nc(Cl)nc2nc[nH]c12)NCCc1ccc(Cl)cc1Cl | inactive: -15.3% | 
3 | CC(=O)Nc1cccc(C(=O)N2CCC3(CC2)NC(=O)N(c2cccc(Cl)c2)N3)c1 | inactive: -3.68% | 
4 | Cc1ccc(-c2ncc3c(n2)OCCN(c2ccccc2)C3=O)cc1F | inactive: -26.3% [at 86.2 µM] | 
5 | CCOC(=O)c1cc2c(=O)n3ccccc3nc2n(CC2CCCO2)c1=NC(=O)c1cccc(C)c1 (stereo not given) |  | inconclusive: 28.2 µM [inhibitor, partial curve, poor fit]
6 | COc1ccc(-c2ccnc(-c3nnc(C)n3Cc3ccccc3)c2)cc1OC |  | active: 35.5 µM
7 | COc1ccc2cc(C(=O)NC(CN(C)C)c3ccccc3)[nH]c2c1 (stereo not given) |  | inconclusive: 25.1 µM [inhibitor, partial curve, poor fit]
8 | Cc1cc(C)cc(NS(=O)(=O)c2ccc3c(c2)-c2oncc2CO3)c1 | inactive: -14.1% | 
9 | CC(CC#N)NCc1ccnc(N2CCCCC2)c1 (stereo not given) |  | inconclusive: 22.4 µM [inhibitor, partial curve, poor fit]
10 | Cc1ccc(NC(=O)Cn2c(-c3ccc(F)cc3)nc(C)c(CCO)c2=O)c(C)c1 | inactive: 17.1% | 
11 | Cc1cccc(=O)n1CCC(=O)NCc1cc2n(n1)CCN(C(=O)N(C)C)C2 | inactive: -23% | 
12 | O=C(NCCc1ccc(Cl)cc1)c1cc(Br)cn2ccnc12 |  | inconclusive: 39.8 µM [inhibitor, single point]
13 | CCN(CC)c1ccc(C(=O)N2CCc3c([nH]c4ccccc34)C2c2ccc(F)cc2)cc1 (stereo not given) |  | inconclusive: 3.55 µM [inhibitor, full curve, poor fit]
14 | COc1cccc(NC(=O)CCc2c(C)c3ccc(OC)c(C)c3oc2=O)c1 |  | inconclusive: 25.1 µM [inhibitor, partial curve, poor fit]
15 | O=C(N1CCCC1)N1CCN(c2ncnc3sccc23)CC(O)C1 (stereo not given) | inactive: 42.2% | 
16 | O=C(O)c1sc(Nc2ccccc2)nc1-c1ccccc1 |  | inconclusive: 15.8 µM [inhibitor, partial curve, poor fit]
17 | CC[C@@H](NC(C)=O)C(=O)N1CCOc2c(cc(-c3cccs3)cc2OC)C1 |  | inconclusive: 10 µM [inhibitor, partial curve]
18 | CCOc1ccc2c(=O)c(Oc3cccc(OC)c3)c(C)oc2c1 |  | inconclusive: 25.1 µM [inhibitor, single point]
19 | COCC1CN(C(=O)CCc2c(C)nn(C)c2C)CC12CCNCC2 (stereo not given) |  | inconclusive: 11.2 µM [inhibitor, partial curve, poor fit]
20 | Clc1ccc(CSc2ccc(-c3cccs3)nn2)cc1 | inactive: -2.13% | 
21 | Cc1n[nH]c(C)c1CNC(=O)CCC1CCCN(S(=O)(=O)c2ccccc2F)C1 (stereo not given) |  | inconclusive: 14.1 µM [inhibitor, partial curve]
22 | COc1ccc(CC(=O)N2CC[C@H]3CC(=O)N(CCN4CCNC4=O)CC[C@H]3C2)cc1 | inactive: -13.1% [at 86.2 µM] | 
23 | Cc1ccccc1N1CCN(C2CCCN(C(=O)c3ccc(-c4ccco4)cc3)C2)CC1 (stereo not given) |  | inconclusive: 31.6 µM [inhibitor, partial curve, poor fit]

Row | Compound | activity change, negative = inhibition | Potency
24 | CSc1ncc(C(=O)Nc2cc(C)cc(C)c2)c(-c2ccccc2)n1 |  | inconclusive: 10 µM [inhibitor, partial curve, poor fit]
25 | COc1ccc(-n2c(=O)c3c4c(sc3n(Cc3ccc(F)cc3)c2=O)CN(C(C)=O)CC4)c(OC)c1 |  | inconclusive: 15.8 µM [inhibitor, partial curve, poor fit]
26 | CN(C)C(=O)c1ccnc(-c2nnc3ccc(NCCc4ccccc4)nn23)c1 |  | inconclusive: 39.8 µM [inhibitor, single point]
27 | CC(C)C(NC(=O)C1CCC1)C(=O)N1CCN(c2ccccn2)CC1 (stereo not given) |  | active: 22.4 µM
28 | Cc1cc2n(n1)CCC(=O)N2C(C)C(=O)NCc1ccc(F)cc1 (stereo not given) | inactive: 11.4% | 
29 | Cc1ccc(NC(=O)COc2ccc(/C=C(/C#N)C(=O)N3CCOCC3)cc2)cc1 |  | inconclusive: 14.1 µM [inhibitor, partial curve, poor fit]
30 | COCC(=O)NC[C@H]1O[C@@H](CO)[C@@H](O)[C@H]1N1CCc2ccccc2C1 |  | inconclusive: 28.2 µM [inhibitor, partial curve, poor fit]
31 | O=C(CSc1nc2c([nH]c3ccccc32)c(=O)n1-c1cccc(Cl)c1)N1CCCC1 |  | inconclusive: 35.5 µM [inhibitor, single point]
32 | Cc1ccsc1C(=O)N1CCC(c2nc(C3CCOCC3)no2)C1 (stereo not given) |  | inconclusive: 39.8 µM [inhibitor, partial curve, poor fit]
33 | COc1cccc(CNC(=O)N2CCN(Cc3ccc(Br)s3)CC2)c1 | inactive: 1.67% | 
34 | CCOC(=O)c1c(NC(=O)CCN2CCCCC2)sc2c1CC(C)(C)OC2 | inactive: 2.49% | 
35 | Cc1cc(C(=O)NCc2cccnc2N(C)C)no1 | inactive: 19.8% | 
36 | CCC(C)NC(=O)c1ccc2c(c1)sc1nc(-c3ccc(OC)cc3)cn12 (stereo not given) |  | inconclusive: 35.5 µM [inhibitor, partial curve, poor fit]
37 | CC(C)(C)CC(=O)N1CCN2C(=O)c3ccc(Cl)cc3NC(=O)[C@H]2C1 |  | inconclusive: 31.6 µM [inhibitor, single point]
38 | O=C(c1ccc(F)c(F)c1)N1CCCC(n2cc(-c3nc(C4CC4)no3)nn2)C1 (stereo not given) | inactive: 32.2% | 
39 | COc1ccccc1CNC(=O)CSc1nc(-c2ccc(OC)c(OC)c2)cc(C(F)(F)F)n1 |  | inconclusive: 22.4 µM [inhibitor, partial curve, poor fit]
40 | CN(CCCN1c2ccccc2CCc2ccccc21)C(=O)C1CNCCO1 (stereo not given) | inactive: -21.5% | 
41 | C=C(C)Cn1c(SCCCCC)nc2c1c(=O)n(C)c(=O)n2C | inactive: -5.85% | 
42 | CCOc1ccc(CCNC(=O)c2ccc3c(c2)N(Cc2ccc(F)cc2)CCS3)cc1 |  | inconclusive: 28.2 µM [inhibitor, partial curve, poor fit]
43 | CCN(CC)CCNC(=O)C12CCCC=C1N(c1ccccc1)C(=O)CC2 (stereo not given) | inactive: -28.6% | 
44 | Cc1cc(=O)n(CC(=O)Nc2ccc(N(C)C)cc2)c(-c2ccc(F)cc2)n1 | inactive: -11.7% | 
45 | CN(C)c1nc2c(c(=O)[nH]1)CCN(Cc1ccc(F)c(F)c1)CC2 | inactive: -26.6% | 
